Data as given in US4520022A, “Substituted vinyl cephalosporins” (priority 1983, dated 1985).
In brackets after ≈: the same amount, converted by molar mass. Read-outs that look alike come from different tables or passages of the source.

Key:
[1] = test system: Gn Ia: E. coli Juhl A15119, E. coli A9660, K. pneumoniae D11, P. mirabilis A9554, P. mirabilis A9900; conditions: for activity against the Gram- bacteria (Gn-Ia): in words
bacteria = assay: Antibacterial activity, general statements; conditions: in words
[2] = read-out: Minimum Inhibitory Concentration Gn Ia, Mueller-Hinton agar, run 1, average of five organisms
[3] = read-out: Minimum Inhibitory Concentration Gn Ia, Mueller-Hinton agar, run 2, average of five organisms
[4] = read-out: Minimum inhibitory Concentration Gn Ia, Test Medium Comparison, A: Mueller-Hinton agar, average values
[5] = read-out: Minimum inhibitory Concentration Gn Ia, Test Medium Comparison, B: Nutrient agar, average values

SMILES | activity against the Gram- bacteria (Gn-Ia) [1] | MIC [1, 2] | MIC [1, 3] | further results
CC/C=C\C1=C(C(=O)[O-])N2C(=O)[C@@H](NC(=O)[C@H](N)c3ccc(O)cc3)[C@H]2SC1.[Na+] | reduction of Gram- activity | 4.1 µg/mL | – | –
CC1=C(C(=O)O)N2C(=O)[C@@H](NC(=O)[C@H](N)c3ccc(O)cc3)[C@H]2SC1 [Cefadroxil] | – | 8.3 µg/mL (≈ 22.8 µM) | 8.3 µg/mL (≈ 22.8 µM) | –
CC1=C(C(=O)O)N2C(=O)[C@@H](NC(=O)[C@H](N)c3ccccc3)[C@H]2SC1 [Cephalexin] | – | 6.2 µg/mL (≈ 17.8 µM) | 4.1 µg/mL (≈ 11.8 µM) | –
C/C=C/C1=C(C(=O)O)N2C(=O)[C@@H](NC(=O)[C@H](N)c3ccc(O)cc3)[C@H]2SC1 [Compound 8, 7β-[D-2-Amino-2-(p-hydroxyphenyl)acetamido]-3-[(E)-1-propen-1-yl]-3-cephem-4-carboxylic Acid] | – | – | – | factor by which less active against Gram- bacteria than the cis-propenyl Compound No. 9 [1]: 8
C=CC1=C(C(=O)O)N2C(=O)[C@@H](NC(=O)[C@H](N)c3ccc(O)cc3)[C@H]2SC1 [Compound 11] | reduction of Gram- activity | 3.6 µg/mL (≈ 9.59 µM) | – | –
N[C@@H](C(=O)N[C@@H]1C(=O)N2C(C(=O)O)=C(/C=C\Cc3ccccc3)CS[C@H]12)c1ccc(O)cc1 [Compound 15, 7β-[D-2-Amino-2-(p-hydroxyphenyl)acetamido]-3-[(Z)-3-phenyl-1-propen-1-yl]-3-cephem-4-carboxylic acid] | reduction of Gram- activity | > 50 µg/mL | – | –
COC/C=C\C1=C(C(=O)O)N2C(=O)[C@@H](NC(=O)[C@H](N)c3ccc(O)cc3)[C@H]2SC1 [Compound 17, 7β-[D-2-Amino-2-(p-hydroxyphenyl)acetamido]-3-[(Z)-3-methoxy-1-propen-1-yl]-3-cephem-4-carboxylic Acid] | reduction of Gram- activity | 2.7 µg/mL (≈ 6.44 µM) | – | –
N[C@@H](C(=O)N[C@@H]1C(=O)N2C(C(=O)O)=C(C=CCSc3cnn[nH]3)CS[C@H]12)c1ccc(O)cc1 [Compound 21, 7β-[D-2-Amino-2-(p-hydroxyphenyl)acetamido]-3-[3-(1H-1,2,3-triazol-5-yl)thio-1-propen-1-yl]-3-cephem-4-carboxylic Acid] | reduction of Gram- activity | 2.7 µg/mL (≈ 5.53 µM) | – | –
C/C=C\C1=C(C(=O)O)N2C(=O)[C@@H](NC(=O)[C@H](N)c3ccccc3)[C@H]2SC1 [Compound 24, 7β-(D(-)-2-Amino-2-phenylacetamido)-3-[(Z)-1-propen-1-yl]-3-cephem-4-carboxylic acid] | good activity against the Gram- bacteria | 0.8 µg/mL (≈ 2.14 µM) | 0.8 µg/mL (≈ 2.14 µM) | –
C/C=C\C1=C(C(=O)O)N2C(=O)[C@@H](NC(=O)[C@H](N)c3ccc(O)c(Cl)c3)[C@H]2SC1 [Compound 32, 7β-[D-2-Amino-2-(3-chloro-4-hydroxyphenyl)acetamido]-3-[(Z)-1-propen-1-yl]-3-cephem-4-carboxylic acid] | good activity against the Gram- bacteria | – | 1.1 µg/mL (≈ 2.6 µM) | –
C/C=C\C1=C(C(=O)O)N2C(=O)[C@@H](NC(=O)[C@H](N)c3ccc(O)c(O)c3)[C@H]2SC1 [Compound 37, 7β-[D(-)-2-Amino-2-(3,4-dihydroxyphenyl)acetamido]-3-[(Z)-1-propen-1-yl]-3-cephem-4-carboxylic Acid] | – | – | 6.3 µg/mL (≈ 15.5 µM) | MIC [1, 4]: 5.5 µg/mL (≈ 13.6 µM); MIC [1, 5]: 0.92 µg/mL (≈ 2.27 µM); antibacterial activity (bacteria): comparable in antibacterial effect to the other cephalosporins having the cis-propenyl group
C/C=C\C1=C(C(=O)O)N2C(=O)[C@@H](NC(=O)[C@H](N)c3ccc(O)c(OC)c3)[C@H]2SC1 [Compound 42, 7β-[D(-)-2-Amino-2-(4-hydroxy-3-methoxyphenyl)acetamido]-3-[(Z)-1-propen-1-yl]-3-cephem-4-carboxylic Acid] | good activity against the Gram- bacteria | – | – | MIC ([1]; read-out: Minimum Inhibitory Concentration Gn Ia, Mueller-Hinton agar, not part of run 1, tested separately, average of five organisms): 0.53 µg/mL (≈ 1.26 µM); MIC [1, 4]: 0.53 µg/mL (≈ 1.26 µM); MIC [1, 5]: 0.4 µg/mL (≈ 0.954 µM)
